In all, about 33,000 sequences were measured (“E-score (-0.5 to 0.5)”: median about -0.016, highest 2% from about 0.32 on). Some of the results follow.
What follows are sequences tested against T1, Stp1 (UniProt B3LFK1) (assay: PBM E-score (8-mer binding enrichment) (E-score (-0.5 to 0.5)); higher = stronger / more preferred TF binding; most listed sequences are background and not binding sites). Details: protein concentration: 200 nM; construct: GST-full length.
T1 sequence: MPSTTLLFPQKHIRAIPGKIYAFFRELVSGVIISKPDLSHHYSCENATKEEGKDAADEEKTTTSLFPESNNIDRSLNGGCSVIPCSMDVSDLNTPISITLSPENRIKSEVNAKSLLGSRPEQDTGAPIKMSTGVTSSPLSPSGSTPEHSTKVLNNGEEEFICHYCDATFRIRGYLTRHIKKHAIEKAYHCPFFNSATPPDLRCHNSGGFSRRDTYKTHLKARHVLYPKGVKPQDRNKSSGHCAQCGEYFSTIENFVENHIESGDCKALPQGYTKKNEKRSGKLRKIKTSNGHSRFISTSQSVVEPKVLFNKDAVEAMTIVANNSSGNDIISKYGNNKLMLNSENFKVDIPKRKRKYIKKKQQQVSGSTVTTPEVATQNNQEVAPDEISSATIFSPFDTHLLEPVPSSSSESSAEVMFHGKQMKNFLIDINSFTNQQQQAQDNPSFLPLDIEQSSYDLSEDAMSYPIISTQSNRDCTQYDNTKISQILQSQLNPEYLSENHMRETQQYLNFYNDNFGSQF
How it was run: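 Using PURExpress in vitro transcription/translation, GST-tagged yeast transcription factors were made in full-length or DNA-binding-domain form. These were applied at about 100-200 nM to double-stranded universal all-10-mer Agilent arrays, and bound protein was detected with fluorescent anti-GST. Scans were normalised with masliner before the Universal PBM Analysis Suite assigned E-scores to ungapped eight-base words pooled with their reverse complements.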

Sequence	PBM E-score
CCTTGGTA	0.149
CATTGAGG	-0.186
AGGTAGGC	-0.175
AGCACTAA	0.132
CACGTCGA	-0.147
ATTCCATG	0.0428
CGAGGTCC	-0.183
AAACCTCT	-0.178
GACCATCC	-0.191
AAACTGGG	-0.188
CTATGCCC	-0.0982
ATTACGCA	0.06
GATATACA	-0.00348
ACTCCGTG	0.185
AGAGTCCG	-0.0927
ACCTTGTC	-0.19
AGAGTTCC	-0.201
ACTACACA	0.075
ATGAAAAC	0.187
TGACAGAA	0.127
AACAGGTC	-0.214
CGCGATAA	0.0906
CAGATGGA	-9e-05
AGGGGCCG	-0.0963
ATGCATTG	-0.111

Sequence	PBM E-score
CCGATAAA	-0.0775
CACAGACA	0.107
GGGTGATA	-0.273
CTCCTAAG	-0.121
GTCCATTA	0.0744
CCCGGAGC	-0.141
TCGCGTCA	-0.126
AACGACCC	-0.213
GCACTATA	0.188
ATGTCTGC	0.00517
CCGCCATA	0.0719
ATTCTTCC	-0.223
GCACACCA	-0.0799
CATCTCCG	0.0211
AAGCCACA	0.0518
CCCACTCC	-0.295
CGTTATCA	0.0755
CTTATGAA	-0.00014
TACAGTAA	0.00798
AACCCCCT	-0.272
ATAGGTTC	0.0795
AAGTTTTA	0.189
GTTCGAAA	0.284
ACTCTGTA	0.0765
AAGCAATC	-0.217

Sequence	PBM E-score
AAAGTAGC	0.0671
CATGGAAG	0.0199
ATTACATG	0.0819
ATGACGGG	-0.0445
CCCTTCGA	-0.117
GAAATCGA	-0.0915
ACTCGTTG	0.0496
AACATGAA	0.0615
TGTTCGAA	0.135
AGAACTCC	-0.143
GAGGTTGC	-0.18
GTGGGGTA	-0.0559
AATAGGAT	0.141
CGCTCTCA	-0.0367
TACGTTGA	-0.072
CGAGAGAA	-0.103
CTCGTTTC	-0.0446
CGAGGCAC	0.384
CCGTAATA	0.0764
GGAATTAC	-0.0176
TCCCGGAA	-0.0693
ATTTTAAC	-0.0293
ATTCACCC	-0.141
AAGACAGC	-0.154
AGAATCCT	-0.205

Sequence	PBM E-score
TAGTGTCA	0.0697
AGCTTCAA	0.0483
ACCACTGA	0.0768
ATATAGTC	0.0848
CCAATGAA	-0.205
CCCCCTAC	-0.29
CGTGTATC	0.0372
GCTGAACC	-0.0468
AAGATTCC	0.0824
ATGAAATC	0.135
GGAGTACC	-0.281
ACACCCGA	-0.0815
CCCTCGTA	-0.0643
AGGGCGTG	-0.0356
CGCCCGGC	-0.0372
AGTATATG	-0.0746
CATTGACA	0.0464
GGAACCGA	-0.0457
CACGAAGG	-0.0374
AACGACGT	0.0278
CTGCATGA	-0.13
ATGACCAT	-0.0894
CCAACGCG	0.0582
AACGCCAT	0.169
GAGCAAAC	-0.0784

Sequence	PBM E-score
AGGACTAT	-0.132
GAAGCGGA	-0.0314
ACGCGAGA	-0.0293
GCAAACGA	0.0507
CTATCTTC	-0.0671
CATCACAG	-0.0415
CCCGGCGA	-0.0779
CCCCTAAC	-0.0546
AGGAGCCG	0.247
CCCTATTC	-0.0984
ATTCCCGC	0.196
CCCGCTGA	-0.297
ACATAGCC	0.0177
AGAGAACA	-0.0119
AACTATTC	0.0119
TGTGGAAA	0.195
ATCTTTTC	0.0462
ACTCCACC	-0.194
GGTGGTCA	-0.177
AGGCAGAG	-0.00743
ACGGGAGT	0.0109
AAGCCCTA	-0.055
CTTAACAC	-0.027
CCCTGCAA	-0.0457
CAAGCGTA	-0.11

Sequence	PBM E-score
AGTTATTG	0.0609
CACCTCGC	-0.156
AAGGGGCC	-0.127
CTGGCCAA	-0.248
CGGCTATC	0.256
ACTTAAAA	0.173
ATGCGCGC	0.209
GTTATCGA	-0.0294
ACGGTTGC	-0.134
GTATCAAA	0.154
CCTTGGCA	-0.188
CCCATAGG	-0.0795
CACATTCC	-0.107
ATTCCCGG	0.0195
ACAGCGAC	-0.198
AGGTAGAG	-0.269
CGGCAGTA	0.271
CCGTAGAA	0.183
ACCGCGAC	0.0496
AAGCTTGC	-0.1
GGACGCTA	-0.244
GGCCCATA	-0.115
GCTCAAGC	0.0943
CACGTGGG	0.139
AGAAAATA	0.0815

Sequence	PBM E-score
CCCGGTCC	-0.335
TTAAGAAA	0.105
AAAAATAA	0.174
AAATCTTC	-0.114
GAATTCCA	-0.0037
TCCCAGGA	-0.255
GATAGAAA	-0.0251
CCGATCGA	0.0713
AGTCACGC	-0.224
ACCTGCCT	-0.153
ATACGGAA	0.268
CTAGATAG	-0.127
TGGCCCCA	-0.356
CCTAAGAG	-0.0473
ACTTGGGC	-0.139
AGAGAACC	-0.189
CCGTGCAG	0.315
GACTACTC	-0.125
GAAGCACC	-0.186
ATCTTGCA	0.216
CCGGACAC	-0.00389
GCATATCC	-0.0106
CGTCCAGA	-0.0946
CAAAGATA	0.0921
TACTACCA	-0.123

Sequence	PBM E-score
CTCGCCGA	-0.0672
AGTATAAT	0.127
ACGTGTAC	-0.219
AGGCGTTA	0.236
CAATCCAA	0.0601
ATCGGATC	-0.0636
ATAGAAAA	0.0396
AAGCCGCT	0.265
AGACGGAT	0.14
CAGAGGCA	-0.00947
ACCGTATA	-0.0953
AGAGCAGA	-0.119
CGCGCACC	0.183
ATATGTAC	0.194
CGAATTCG	0.0756
GAACGCGA	-0.204
AATGACGA	-0.00546
CCTTGTCA	-0.0309
AGCGCTCA	-0.122
AAATGTGA	-0.0279
CCTGAATA	0.0967
CACACAGC	0.155
AATATTGC	0.186
AATTGCGT	0.138
CATAATAA	0.134

Sequence	PBM E-score
AGATACTG	0.123
ACTCTCAC	0.0334
AGCTGGGC	-0.089
GCAGTCAA	-0.2
GATCATTA	0.0868
CGAACGCC	0.228
AGCGGAAT	0.0315
CCAAATGA	0.0462
CACGATAG	-0.0449
ACACGGTC	0.0489
AGTTACAG	0.00907
AATATTTA	0.225
ATGCACTG	-0.15
CTAAAAAG	0.135
CAGTGTCG	-0.191
GCCAAGGC	-0.059
GGCATTGA	0.268
AAATTCGA	0.0925
AGATCGAC	-0.141
TCCACACA	0.0753
CGTATAGC	0.0616
AGAACAAT	0.163
CACTACTC	0.0699
ATTGGGAG	-0.179
TAGCAATA	0.0285

Sequence	PBM E-score
ACCAAAGA	0.165
CCAACACC	-0.208
AAAACTCC	-0.234
AAAGTGTG	-0.00826
GTCGTAAA	0.0706
AGCTATCA	-0.0431
GTCCAGAC	-0.253
AGCAACAC	0.0741
GGTCCACC	-0.214
AGTCTACG	-0.299
CAGGGTAG	-0.2
CCGGGCTA	-0.215
CTAGTCAC	-0.148
TACAAGAA	0.0192
GTAAGCAC	0.0535
AACGGTAA	-0.0192
ACTCCCGA	-0.302
GTAGGGTA	0.0059
GCTACTGA	-0.0112
CAGTGACC	-0.214
CCTGCAAA	-0.176
GAAAGAAA	0.172
AGATTTAA	0.0854
AAGGTAGA	-0.123
AACTACCC	-0.312

Sequence	PBM E-score
ATACGTGC	0.158
GTTGACAA	0.283
CACAGGTG	-0.154
CTGCCCAA	-0.177
ATGCACCG	-0.0364
AAAGAATT	0.0966
CCGCACAA	0.285
GAGTTGCA	-0.127
CTCGAATA	-0.0666
ACACGCGC	0.199
CTAAGGCA	0.253
AATCGTAG	0.02
CGTCCCAC	-0.139
GACACGAC	0.0333
ACGTGACT	-0.206
CCTCGCTC	0.165
TGGTTCAA	0.104
CCTAGCAA	-0.0594
AATCGACT	-0.205
CTAGGAGC	-0.171
CAATAGCC	-0.0108
CAAAGAGG	0.00242
GATTCATA	0.0474
ACTATAAG	0.056
GAGGTGGC	-0.0295

Sequence	PBM E-score
GCCCCCAA	-0.354
ACATTGGT	-0.107
GGTAGAAC	-0.164
ATGTGGGG	-0.262
AGCTGTAG	-0.117
AATGACTA	-0.203
AAGATGAT	0.0573
CGACCGCA	-0.129
GTGCTAAC	-0.0443
AATTTACC	0.052
CTCCCGTA	-0.0725
AGCCGAAA	0.0823
GGCTTGCA	0.0669
CGCTGACA	0.0619
TGGATTAA	0.0615
CTGACACC	-0.106
ACAATGCT	-0.0829
ACGGACCA	0.159
ACATAGAG	-0.134
CAGGAAGA	-7e-05
ACGTCTGA	-0.0596
CGTGCCTC	0.398
GCACTTAC	0.044
TAAGGACA	0.146
GAACTGAA	0.0626

Sequence	PBM E-score
AGTCCGGC	-0.043
ATCATATA	0.171
CCACAATC	-0.168
CTCCTATA	-0.118
CTTCCAGC	-0.0829
TCGAAACA	0.116
CTCCTCAG	-0.248
GTCATCGA	-0.152
TCCGTCGA	-0.0144
ACTCGAGA	0.0305
CAGGGGCC	-0.151
GCGGGCAC	0.142
CTATAAGA	-0.0839
ACCACCAG	-0.0367
GCCCTTAC	-0.163
CTCGAGTA	0.0278
CTTGTAAC	0.203
AGGTTACG	-0.0798
AGAGGTCG	-0.096
AGCTTTTC	-0.209
CGGAGGTA	-0.168
GGCGCGCA	0.318
TCCTGCGA	-0.00958
ATGCTTTA	0.0367
ATTTCAGC	-0.0721

Sequence	PBM E-score
CTGACATC	-0.00511
CTTTTGGC	-0.0246
AATGCAAC	0.0268
ATACTTAA	0.0997
TAATTCGA	0.0127
AATACTTA	0.0613
TACGAGGA	-0.14
CCGCAGTA	0.0872
ACATTAGT	-0.012
GTAAGCAA	0.098
ACCTGGGA	-0.202
CAGTTTAA	0.0106
GAGGTACC	-0.211
CTGCCATC	-0.103
AAGTGGTC	-0.0657
CGCATCTA	0.11
CATGTCCC	-0.149
AAATTATG	0.146
ATTCTGTA	-0.0804
